Results taken from PubChem BioAssay AID1508623 (National Center for Advancing Translational Sciences (NCATS), 2021).
In all, about 48,000 compounds went through this assay and about 450 (0.94%) were called active. Inconclusive means that the source gave no clear call. Such entries were picked first, then a sample of the others. The call rests on the fitted dose curve; in most records, active means well fitted inhibition curve with a large enough effect; inconclusive means small, poorly fitted or top-dose-only effect; inactive means no such curve, though single readings can be large or run the other way. Where the call is inconclusive, the potency comes from a doubtful curve fit.

Assay: Primary qHTS for Identification of Small Molecule Inhibitors of Huntingtin Promoter Activity; further: nearly all actives have a fitted effect of over 50% in size
Conditions: HEK293 HTT promoter firefly luciferase reporter (activity 0% = vehicle and -100% = no light), 24 h; activity change, negative = inhibition: at 57.5 µM (top of the series)
Method in brief: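 Luminescence was read after Dual-Glo reagent and a 10 min room-temperature incubation. Values were normalized to vehicle (0% activity) and zero RLU (-100% activity). Reporter HEK293 cells had been exposed to compounds (up to 57.5 uM final) for 24 h.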
Potency means the concentration at half of the fitted maximal effect; tags describe the fitted curve by direction and shape.

Potency, inconclusive:
NC1(C(=O)N[C@@H](CCO)c2ccc(Cl)cc2)CCN(c2ncnc3[nH]ccc23)CC1 1.93 µM [inhibitor, full curve]
Cc1ccccc1OCC(=O)N(Cc1ccc(C(C)C)cc1)C1CCS(=O)(=O)C1 (stereo not drawn) 39.8 µM [inhibitor, partial curve, poor fit]
COc1cc(CN2CCc3nc(N4CCN(c5ccccn5)CC4)ncc3C2)cc(OC)c1OC 2.24 µM [inhibitor, full curve, poor fit]
CC(=O)c1cc(-c2ccccc2)n(CCC(=O)NC(C)c2ccccc2)c1C (stereo not drawn) 12.6 µM [inhibitor, partial curve, poor fit]
CC(C)(C)c1ccc(C(=O)NCC(c2cccs2)S(=O)(=O)c2cccs2)cc1 (stereo not drawn) 25.1 µM [inhibitor, partial curve, poor fit]
Cc1cc(C)c2c(CC(=O)Nc3ccc(S(=O)(=O)N4CCCCC4)cc3)coc2c1 20 µM [inhibitor, partial curve, poor fit]
CCCN(CCC)S(=O)(=O)c1ccc(C(=O)Nc2cccc(-c3nc4ccccc4[nH]3)c2)cc1 31.6 µM [inhibitor, partial curve, poor fit]
Cc1ccc(NCc2cccn2-c2nnc(N3CCC(C(=O)NCCC(C)C)CC3)s2)cc1 25.1 µM [inhibitor, single point]
Cc1ccc(Cl)cc1N1CCN(CCCNC(=O)C2COc3ccccc3C2)CC1 (stereo not drawn) 35.5 µM [inhibitor, partial curve, poor fit]
COc1ccc(C(=O)NCCn2cc(SC(C)c3ccccc3)c3ccccc32)cc1OC (stereo not drawn) 20 µM [inhibitor, partial curve, poor fit]
CCO[C@@H]1O[C@H](C(COCc2ccccc2)OCc2ccccc2)[C@H](OCc2ccccc2)[C@H]1O (stereo partly drawn) 35.5 µM [inhibitor, single point]
Cc1cccc(C(=O)Nc2ccc(S(=O)(=O)N(Cc3ccccc3)c3ccccc3)cc2)c1 31.6 µM [inhibitor, partial curve, poor fit]
C[C@@H]1CC=CC=CC=CC=C[C@@H](O[C@@H]2O[C@H](C)[C@@H](O)[C@H](N)[C@H]2O)C[C@@H]2O[C@](O)(C[C@@H](O)C[C@@H]3O[C@@H]3C=CC(=O)O1)C[C@H](O)[C@@H]2C(=O)O 24.3 µM [inhibitor, single point]
Cc1cccc(N2CCN(C(=O)C3CCN(c4ncnc5c4nc4n5CCCCC4)CC3)CC2)c1C 2 µM [inhibitor, full curve]
O=S(=O)(Nc1ccc(F)cc1F)c1ccc(-n2cccn2)cc1 28.2 µM [inhibitor, single point]
COc1ccc(CNC(=O)c2ccc3nc(C(C)C)oc3c2)cc1OC 39.8 µM [inhibitor, single point]
O=C1[C@H](Cc2ccc(O)cc2)N2C(=O)CCN(C(=O)NCc3ccccc3)[C@H]2CN1Cc1cccc2ccccc12 10.9 µM [inhibitor, full curve]
COc1ccccc1C1c2c(-c3ccc(Cl)cc3)n[nH]c2C(=O)N1c1ccc(C)cc1 (stereo not drawn) 39.8 µM [inhibitor, single point]
Cc1cccc(NC(=O)c2cc(S(=O)(=O)NCCc3ccccc3)ccc2F)c1C 35.5 µM [inhibitor, single point]
Cc1ccccc1S(=O)(=O)Cc1ccc(C(=O)N2CCN(c3cccc(Cl)c3)CC2)o1 25.1 µM [inhibitor, partial curve, poor fit]
COc1cccc2sc(N(Cc3cccnc3)C(=O)c3ccc4c(c3)OCCO4)nc12 39.8 µM [inhibitor, single point]
Cc1cccc(NC(=O)Cn2cc(C(=O)C3CCCCC3)c3ccccc32)c1 20 µM [inhibitor, single point]
CCOC(=O)CC(NC(=O)CCc1c(C)nc2c(-c3ccccc3)c(C)nn2c1C)c1ccc(OC(C)C)cc1 (stereo not drawn) 31.6 µM [inhibitor, partial curve, poor fit]
O=C(CSc1cn(CC(=O)N2CCCC2)c2ccccc12)Nc1ccc(Cl)cc1 39.8 µM [inhibitor, single point]
CN(c1ccccc1)S(=O)(=O)c1ccc(NC(=O)c2nc(S(C)(=O)=O)ncc2Cl)cc1 35.5 µM [inhibitor, single point]
COc1ccc(NC(=O)c2sc3nc4c(cc3c2N)CN(Cc2ccccc2)CC4)c(OC)c1 20 µM [inhibitor, single point]
COc1ccc(NC(=O)Cn2c(SCc3ccc(C)cc3)nc3cccnc32)cc1OC 20 µM [inhibitor, single point]
CCC(C)c1ccc2oc(-c3ccc(NC(=O)c4cc5ccccc5o4)cc3)nc2c1 (stereo not drawn) 0.199 µM [inhibitor, partial curve, poor fit]
Cc1cccc(Cn2c(=O)n3nc(-c4ccccc4)nc3c3ccccc32)c1 35.5 µM [inhibitor, partial curve, poor fit]

Potency, active:
CCOc1ccc(S(=O)(=O)NCCc2csc3nc(-c4ccc(F)cc4)nn23)cc1 25.1 µM

Activity change, negative = inhibition, inactive:
Fc1ccc(-n2ncc3c(NCCC4=CCCCC4)ncnc32)cc1 37.7%
COc1cc(NC(=O)CNS(=O)(=O)c2cccs2)cc(OC)c1OC 6.73%
O=C(Nc1cccc(C(F)(F)F)c1)c1ccc2snnc2c1 -6.72%
COc1cccc([C@@H](C)NCCCc2ccccc2Cl)c1 183%
Cc1cc(C)cc(NC(=O)Cn2c(=O)n(Cc3ccco3)c(=O)c3oc4ccccc4c32)c1 -26.4%
N#Cc1ccc(-c2cccs2)nc1SCC(=O)Nc1cccc(C(F)(F)F)c1 -31.6%
COC(=O)c1cc(Cl)ccc1OC -1.76%
NC(=O)c1cccc2[nH]c(-c3ccc([C@H]4CCCN4)cc3F)nc12 6.82%
